In the supplement of paper PMC7826260:
Some of the results follow. Viral Rep nickase domains cut single-stranded DNA in vitro (1 h at 37 °C, 3 µM enzyme); the outer parts of the 90-letter strands are left off. Numbers give uncut DNA relative to the enzyme-free pool, as log2; more negative means more cut, near 0 not cut, and no call is made. Shares of all reads are compared; uncut strands gain when others are lost, and binding without cutting may add a little.

Columns and labels:
Assay in all cases: uncleaved DNA left, log2 of reads against the no-enzyme library (log2 ratio); higher = less cleavage (more negative = more Rep cleavage of the k-mer); sequences stand for … in CTCGTCCG…ACCGGAGA
[1] = system: T1, Rep nickase domain of Muscovy duck circovirus
T1 sequence (Rep 1-111, printed without the tag): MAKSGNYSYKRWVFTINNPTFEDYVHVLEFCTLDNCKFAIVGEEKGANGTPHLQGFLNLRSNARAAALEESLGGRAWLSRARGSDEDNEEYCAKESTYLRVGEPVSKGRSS
Description: (§1)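 A pool of 90-nt single-stranded DNAs with seven random bases just before the constant AC of the nick site (name = the seven bases) was cut by 3 µM recombinant His6-SUMO-tagged Rep nickase domain (300 nM DNA, 50 mM HEPES pH 8.0, 50 mM NaCl, 1 mM MnCl2, 1 h, 37 °C, three replicates). Uncut DNA was amplified and sequenced.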

[2] = system: T2, Rep nickase domain of banana bunchy top virus
T2 sequence (Rep 1-94, printed without the tag): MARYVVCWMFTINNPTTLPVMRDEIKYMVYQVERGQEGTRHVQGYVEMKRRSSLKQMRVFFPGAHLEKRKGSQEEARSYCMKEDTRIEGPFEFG
Description: as §1

[3] = system: T3, Rep nickase domain of cabbage leaf curl virus
T3 sequence (Rep 1-116, printed without the tag): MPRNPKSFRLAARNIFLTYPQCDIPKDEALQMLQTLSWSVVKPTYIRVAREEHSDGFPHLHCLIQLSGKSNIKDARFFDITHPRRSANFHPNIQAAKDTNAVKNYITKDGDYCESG
Description: as §1

[4] = system: T4, Rep nickase domain of chickpea chlorotic dwarf virus
T4 sequence (Rep 1-124, printed without the tag): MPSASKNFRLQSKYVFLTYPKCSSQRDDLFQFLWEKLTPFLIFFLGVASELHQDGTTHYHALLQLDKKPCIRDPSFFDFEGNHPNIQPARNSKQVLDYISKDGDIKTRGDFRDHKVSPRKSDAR
Description: as §1

[5] = system: T5, Rep nickase domain of faba bean necrotic yellows virus
T5 sequence (Rep 1-98, printed without the tag): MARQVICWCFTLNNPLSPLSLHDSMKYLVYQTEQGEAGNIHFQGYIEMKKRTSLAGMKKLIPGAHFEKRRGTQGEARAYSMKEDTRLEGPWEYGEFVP
Description: as §1

[6] = system: T6, Rep nickase domain of maize striate mosaic virus
T6 sequence (Rep 1-117, printed without the tag): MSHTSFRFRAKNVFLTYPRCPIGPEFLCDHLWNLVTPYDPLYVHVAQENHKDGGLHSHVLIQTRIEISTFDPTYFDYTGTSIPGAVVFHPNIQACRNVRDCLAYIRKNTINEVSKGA
Description: as §1

[7] = system: T7, Rep nickase domain of porcine circovirus 2
T7 sequence (Rep 2-116, printed without the tag): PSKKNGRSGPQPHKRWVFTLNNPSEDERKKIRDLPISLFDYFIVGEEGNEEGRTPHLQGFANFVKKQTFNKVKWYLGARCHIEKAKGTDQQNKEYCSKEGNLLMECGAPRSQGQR
Description: as §1

[8] = system: T8, Rep nickase domain of tomato golden mosaic virus
T8 sequence (Rep 1-124, printed without the tag): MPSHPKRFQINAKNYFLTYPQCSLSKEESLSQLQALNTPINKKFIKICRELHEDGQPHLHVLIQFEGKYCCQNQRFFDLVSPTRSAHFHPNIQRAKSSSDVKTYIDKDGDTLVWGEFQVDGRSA
Description: as §1

[9] = system: T9, Rep nickase domain of tomato yellow leaf curl virus
T9 sequence (Rep 1-136, printed without the tag): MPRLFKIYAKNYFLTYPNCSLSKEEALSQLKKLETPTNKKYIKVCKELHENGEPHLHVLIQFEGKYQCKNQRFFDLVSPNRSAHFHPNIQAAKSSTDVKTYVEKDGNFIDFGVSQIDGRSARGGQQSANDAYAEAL
Description: as §1

[10] = system: T10, Rep nickase domain of wheat dwarf virus
T10 sequence (Rep 1-137, printed without the tag): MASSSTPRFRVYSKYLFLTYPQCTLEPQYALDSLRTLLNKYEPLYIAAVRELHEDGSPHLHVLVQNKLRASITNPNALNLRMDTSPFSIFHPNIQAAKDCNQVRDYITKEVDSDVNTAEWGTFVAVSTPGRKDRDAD
Description: as §1

Sequence	uncleaved DNA left (log2) [1]	uncleaved DNA left (log2) [2]	uncleaved DNA left (log2) [3]	uncleaved DNA left (log2) [4]	uncleaved DNA left (log2) [5]	uncleaved DNA left (log2) [6]	uncleaved DNA left (log2) [7]	uncleaved DNA left (log2) [8]	uncleaved DNA left (log2) [9]	uncleaved DNA left (log2) [10]
GTTCAAC	-0.0593	-0.0796	0.221	0.705	-0.0737	1.58	0.0114	0.0444	0.00417	0.0374
AATTTGT	-3.62	-3	-0.417	-1.4	0.0348	-1.39	-3.8	-0.056	-0.03	0.0159
GATCCTC	0.0912	0.112	0.193	0.643	-0.0405	0.844	0.0717	-0.0189	0.0769	0.231
TTAACAT	0.0651	0.13	0.0109	-0.749	0.0392	0.739	0.0739	0.0659	0.188	0.207
CAAAGTG	0.0126	0.029	-0.704	-0.988	0.0531	-1.17	0.152	0.0465	0.0359	-0.0221
TTTTCTA	-0.219	-0.0997	0.119	-0.849	-0.131	0.161	-0.349	-0.0496	-0.0936	-0.138
CCCGTCC	0.123	-0.00785	0.144	-0.143	0.00942	-0.104	0.0506	-0.0175	0.0775	-0.0682
CAGGAAG	-0.0831	0.0326	-0.589	-0.442	0.0455	-0.875	0.102	0.0467	-0.0319	-0.0575
GGAGAGA	0.0706	0.195	0.983	1.94	0.125	2.16	0.324	0.174	0.0768	0.257
ACCCGAG	-0.0354	0.133	0.869	2.07	0.129	1.45	0.193	0.14	0.101	0.181
GACCGGT	-0.0536	-0.0106	0.141	0.58	-0.0848	0.688	-0.0468	-0.00381	-0.0937	-0.076
GTCAAAC	0.0407	0.102	0.344	0.916	0.108	1.47	0.0795	0.144	0.0358	0.119
TTCAGGA	0.0748	0.00266	0.173	0.563	0.0596	-0.0276	0.138	0.0955	-0.0102	0.0658
CGCCTAT	-0.188	-0.122	0.0084	-0.459	0.032	-0.325	-0.165	-0.174	-0.0903	-0.226
CCGCTGA	-0.014	-0.117	0.229	0.655	-0.124	0.845	0.0589	-0.168	-0.0287	0.0309
GCCTAAT	-0.904	-0.0316	0.198	0.207	0.0508	0.521	-2.75	0.032	-0.0112	0.021
AAGTTCT	-2.08	-2.75	-0.609	-3.03	-1.71	-0.133	-4.49	-0.106	-0.148	-0.094
CCAAATG	-0.0769	-0.114	0.0274	0.414	-0.0211	-0.31	0.0911	-0.0211	-0.123	-0.185
TAGTCTT	-3.39	-3.31	-3.41	-3.03	-3.57	-0.555	-3.94	-1.7	0.0481	-1.52
CAATGTA	-0.854	-0.0636	-2.09	-2.4	-0.0165	-1.17	-2.65	-0.442	0.0215	-0.492
ACAGCGC	-0.127	-0.1	-0.343	0.56	-0.146	-0.143	-0.0854	-0.141	-0.17	-0.128
ACAACAC	-0.0763	-0.0593	-0.104	-0.516	-0.0402	-0.65	0.215	-0.0268	-0.054	0.0373
CATACGG	-0.0217	0.0712	0.493	1.31	-0.0349	1.56	0.0982	0.116	-0.0915	0.0152
CGGGTCT	0.039	0.134	0.782	1.14	-0.0248	1.89	0.131	0.0509	0.0934	0.144
GCAGGCA	0.00421	0.0688	-0.00976	0.298	-0.0739	-0.186	0.0179	0.0408	-0.0164	-0.0624
ACATAGC	-0.173	-0.149	-0.721	-0.584	-0.0331	-1.24	0.0367	-0.0677	-0.0856	-0.215
ACTCAAG	0.0766	0.0128	-0.797	-0.107	0.096	-0.894	0.23	0.0786	0.11	-0.149
TCCCTAT	0.086	-0.198	0.113	-0.783	-0.106	-0.353	-0.148	-0.0812	-0.208	0.11
AAACATG	0.0581	0.172	-0.278	-0.534	0.186	-0.83	0.124	0.109	0.0393	-0.0305
AGAGGAC	0.0726	0.135	0.448	1.5	0.0809	1.65	0.233	0.216	0.00533	0.149
